The supplement of paper PMC4996465

Columns and labels:
[1] = tested on: KB3-1; experiment: log AC50 of viability decrease (48 h) (log10 M); higher = less potent
Protocol: (§1)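 Eleven-dose screen of the NCATS MIPE 3 library on cells without co-treatment; CellTiter-Glo after 48 h. AC50 from the curve fit; only inhibitory curves of the better fit classes are listed.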

[2] = tested on: Nalm-6; experiment: as above
Protocol: as §1

[3] = tested on: KB3-1; experiment: viability (% of DMSO control); higher = more viable cells
Protocol: (§2)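 Eleven-dose screen of the NCATS MIPE 3 library on cells without co-treatment; CellTiter-Glo after 48 h, as % of DMSO wells.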

[4] = tested on: Nalm-6; experiment: as above
Protocol: as §2

O=[N+]([O-])c1cnc(Sc2nnc(O)n2-c2ccc3c(c2)OCCO3)s1 [BI-78D3]
log AC50 of viability decrease [1]: -4.68
log AC50 of viability decrease ([2]; run: 1): -6.63
log AC50 of viability decrease ([2]; run: 2): -6.58
viability ([3]; 0.00078 µM): 102%
viability ([3]; 0.00234 µM): 108%
viability ([3]; 0.00702 µM): 101%
viability ([3]; 0.0211 µM): 103%
viability ([3]; 0.0632 µM): 97.3%
viability ([3]; 0.19 µM): 96.4%
viability ([3]; 0.569 µM): 101%
viability ([3]; 1.71 µM): 101%
viability ([3]; 5.12 µM): 95.9%
viability ([3]; 15.4 µM): 84.5%
viability ([3]; 46.1 µM): 44.7%
viability ([4]; run: 1, 0.00078 µM): 108%
viability ([4]; run: 1, 0.00234 µM): 105%
viability ([4]; run: 1, 0.00702 µM): 114%
viability ([4]; run: 1, 0.0211 µM): 108%
viability ([4]; run: 1, 0.0632 µM): 90.6%
viability ([4]; run: 1, 0.19 µM): 69.8%
viability ([4]; run: 1, 0.569 µM): 4.65%
viability ([4]; run: 1, 1.71 µM): 3.05%
viability ([4]; run: 1, 5.12 µM): 1.35%
viability ([4]; run: 1, 15.4 µM): 0.67%
viability ([4]; run: 1, 46.1 µM): -0.585%
viability ([4]; run: 2, 0.00078 µM): 105%
viability ([4]; run: 2, 0.00234 µM): 104%
viability ([4]; run: 2, 0.00702 µM): 104%
viability ([4]; run: 2, 0.0211 µM): 105%
viability ([4]; run: 2, 0.0632 µM): 91.7%
viability ([4]; run: 2, 0.19 µM): 82.3%
viability ([4]; run: 2, 0.569 µM): 5.84%
viability ([4]; run: 2, 1.71 µM): 1.7%
viability ([4]; run: 2, 5.12 µM): 1.11%
viability ([4]; run: 2, 15.4 µM): 1.25%
viability ([4]; run: 2, 46.1 µM): -0.0168%

Nc1cc(C(F)(F)F)c(-c2cc(N3CCOCC3)nc(N3CCOCC3)n2)cn1 [BKM-120]
log AC50 of viability decrease [1]: -6.03
log AC50 of viability decrease ([2]; run: 1): -6.08
log AC50 of viability decrease ([2]; run: 2): -5.98
viability ([3]; 0.00078 µM): 104%
viability ([3]; 0.00234 µM): 107%
viability ([3]; 0.00702 µM): 105%
viability ([3]; 0.0211 µM): 109%
viability ([3]; 0.0632 µM): 101%
viability ([3]; 0.19 µM): 91.3%
viability ([3]; 0.569 µM): 74.6%
viability ([3]; 1.71 µM): 50.7%
viability ([3]; 5.12 µM): 20.1%
viability ([3]; 15.4 µM): 18.5%
viability ([3]; 46.1 µM): 20.3%
viability ([4]; run: 1, 0.00078 µM): 127%
viability ([4]; run: 1, 0.00234 µM): 121%
viability ([4]; run: 1, 0.00702 µM): 114%
viability ([4]; run: 1, 0.0211 µM): 123%
viability ([4]; run: 1, 0.0632 µM): 106%
viability ([4]; run: 1, 0.19 µM): 92.6%
viability ([4]; run: 1, 0.569 µM): 76.6%
viability ([4]; run: 1, 1.71 µM): 51.6%
viability ([4]; run: 1, 5.12 µM): 28.9%
viability ([4]; run: 1, 15.4 µM): 24.9%
viability ([4]; run: 1, 46.1 µM): 11.7%
viability ([4]; run: 2, 0.00078 µM): 99.3%
viability ([4]; run: 2, 0.00234 µM): 104%
viability ([4]; run: 2, 0.00702 µM): 105%
viability ([4]; run: 2, 0.0211 µM): 106%
viability ([4]; run: 2, 0.0632 µM): 97.9%
viability ([4]; run: 2, 0.19 µM): 95.8%
viability ([4]; run: 2, 0.569 µM): 76.6%
viability ([4]; run: 2, 1.71 µM): 36.7%
viability ([4]; run: 2, 5.12 µM): 18.7%
viability ([4]; run: 2, 15.4 µM): 13.9%
viability ([4]; run: 2, 46.1 µM): 3.21%

CC(C)C(=O)Nc1ncc(-c2cc(C(F)F)nn2-c2c(Cl)cccc2Cl)s1 [BMS-5]
log AC50 of viability decrease [1]: -4.73
log AC50 of viability decrease ([2]; run: 1): -4.73
log AC50 of viability decrease ([2]; run: 2): -4.93
viability ([3]; 0.00078 µM): 96.8%
viability ([3]; 0.00234 µM): 95.3%
viability ([3]; 0.00702 µM): 91%
viability ([3]; 0.0211 µM): 99.7%
viability ([3]; 0.0632 µM): 108%
viability ([3]; 0.19 µM): 94.3%
viability ([3]; 0.569 µM): 95.7%
viability ([3]; 1.71 µM): 97.5%
viability ([3]; 5.12 µM): 79.9%
viability ([3]; 15.4 µM): 73.8%
viability ([3]; 46.1 µM): 19.7%
viability ([4]; run: 1, 0.00078 µM): 85.8%
viability ([4]; run: 1, 0.00234 µM): 91%
viability ([4]; run: 1, 0.00702 µM): 86.7%
viability ([4]; run: 1, 0.0211 µM): 117%
viability ([4]; run: 1, 0.0632 µM): 120%
viability ([4]; run: 1, 0.19 µM): 100%
viability ([4]; run: 1, 0.569 µM): 104%
viability ([4]; run: 1, 1.71 µM): 103%
viability ([4]; run: 1, 5.12 µM): 98.9%
viability ([4]; run: 1, 15.4 µM): 66.9%
viability ([4]; run: 1, 46.1 µM): 7.36%
viability ([4]; run: 2, 0.00078 µM): 79.3%
viability ([4]; run: 2, 0.00234 µM): 92.4%
viability ([4]; run: 2, 0.00702 µM): 97.8%
viability ([4]; run: 2, 0.0211 µM): 99.3%
viability ([4]; run: 2, 0.0632 µM): 102%
viability ([4]; run: 2, 0.19 µM): 89.4%
viability ([4]; run: 2, 0.569 µM): 101%
viability ([4]; run: 2, 1.71 µM): 105%
viability ([4]; run: 2, 5.12 µM): 97.8%
viability ([4]; run: 2, 15.4 µM): 29%
viability ([4]; run: 2, 46.1 µM): 4.09%

Viability of KB3-1 and Nalm-6 cells after 48 h of drug alone (CellTiter-Glo), 11 doses over about 4.5 log units. % of DMSO wells, lower = more cell loss; AC50 from the fitted curve, lower = more potent. No active / inactive call. Nalm-6 was screened in two runs. AC50 is listed only for well-fitted inhibitory curves. KB3-1 is a HeLa-derived carcinoma line, Nalm-6 a B-cell precursor leukaemia line.
